The full ranking holds about 33,000 sequences; the median of “E-score (-0.5 to 0.5)” is about -0.012, and the highest 2% start at about 0.29. The list shows a part of the results.

The target in this assay is T1, Ybr033w (UniProt P38073).
T1 sequence: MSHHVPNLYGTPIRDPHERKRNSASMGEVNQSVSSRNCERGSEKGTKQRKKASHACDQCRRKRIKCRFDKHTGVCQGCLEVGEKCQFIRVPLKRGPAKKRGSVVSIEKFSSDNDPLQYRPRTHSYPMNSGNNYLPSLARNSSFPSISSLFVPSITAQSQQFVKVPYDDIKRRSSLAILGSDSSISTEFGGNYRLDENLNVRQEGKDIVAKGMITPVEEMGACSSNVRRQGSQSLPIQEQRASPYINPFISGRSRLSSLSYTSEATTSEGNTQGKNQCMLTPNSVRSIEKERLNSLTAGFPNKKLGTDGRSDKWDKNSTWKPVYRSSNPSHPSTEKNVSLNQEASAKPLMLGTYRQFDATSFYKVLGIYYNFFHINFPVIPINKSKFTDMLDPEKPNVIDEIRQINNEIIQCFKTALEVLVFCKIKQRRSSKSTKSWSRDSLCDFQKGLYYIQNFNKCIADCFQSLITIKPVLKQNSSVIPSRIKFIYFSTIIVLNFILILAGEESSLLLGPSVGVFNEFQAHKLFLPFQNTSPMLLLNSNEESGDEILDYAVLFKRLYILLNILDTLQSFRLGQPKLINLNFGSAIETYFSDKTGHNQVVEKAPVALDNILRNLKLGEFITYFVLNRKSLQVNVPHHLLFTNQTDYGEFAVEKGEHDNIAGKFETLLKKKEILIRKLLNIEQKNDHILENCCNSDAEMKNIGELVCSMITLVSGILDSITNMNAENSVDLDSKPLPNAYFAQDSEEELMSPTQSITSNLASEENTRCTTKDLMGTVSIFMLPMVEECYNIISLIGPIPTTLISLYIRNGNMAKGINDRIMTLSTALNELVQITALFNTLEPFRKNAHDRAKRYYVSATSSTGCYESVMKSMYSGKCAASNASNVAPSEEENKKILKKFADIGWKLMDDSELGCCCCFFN
Description: PBM E-score (8-mer binding enrichment) (E-score (-0.5 to 0.5)); higher = stronger / more preferred TF binding; most listed sequences are background and not binding sites. Conditions: protein concentration: 200 nM; construct: GST-full length. The method in brief:
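Yeast transcription factors, full-length or as DNA-binding domains, were expressed with a GST tag using PURExpress in vitro transcription/translation. At about 100-200 nM they were applied to universal all-10-mer Agilent arrays, double-stranded by primer extension on fresh or once-stripped slides. Fluorescent anti-GST detected bound protein, and masliner normalised the scans. E-scores for ungapped eight-base words, pooled with reverse complements, came from the Universal PBM Analysis Suite.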
Regarding CGGGATGC, the “PBM E-score” value is -0.167.
Under CGTGATGC stands -0.151; under CCGACGGC, -0.324.
Regarding CGACGGAC, the “PBM E-score” value is 0.00464.
Under CCATTGGA stands -0.137; under GATGTGTA, 0.00086; under ATCAAGCG, 0.0814.
Next, CATTTCGC: -0.0878.
In the case of CTTTGCGC, the “PBM E-score” value was -0.119.
Next, AAAATGAA: 0.081.
Consider GTTTGAAA, for which the “PBM E-score” value came out at 0.253.
Next, ACAATGTG: 0.103; GCCACATA: 0.174.
Under CGCTTACC stands -0.123; under ACATGCGT, -0.104; under CCTTAACG, -0.0917.
Next, CACCACCA: 0.0182; AAATGCGG: 0.148.
For the sequence ATTTTACC, the “PBM E-score” value stood at 0.362.
Under GTTTGGAA stands 0.144; under CGCTTCCA, -0.0888; under ATAGGCGG, 0.0815.
As to CGCGACAC, the “PBM E-score” value amounted to 0.0555.
Under GGACAGAC stands -0.174; under ACCACGTA, -0.0972.
Next, GAAGGATC: 0.0683; AGTGCGTA: -0.0382; CGAGGAAG: -0.0631.
Under GACAGTGC stands -0.0743; under ACTTCTCA, 0.0478.
For CAATACCG, the “PBM E-score” value is -0.0706.
Next, CGTGAGCA: -0.128; CCTTATGA: -0.0328; CCTTTCAG: -0.166.
Next, CAAGTTAC: 0.19.
Under GGAGCGCA stands -0.142.
Consider ATCATCTG, for which the “PBM E-score” value is -0.0103.
ACCATTTG: the “PBM E-score” value worked out at 0.116.
Turning to AAGATTTC, the “PBM E-score” value was 0.169.
Next, TCAGACCA: -0.0453; AGCTTGAA: -0.0326.
For the sequence GAACTAAA, the “PBM E-score” value worked out at 0.215.
As for CAGTCCCG, the “PBM E-score” value was -0.248.
Next, CGTGTCAA: -0.172.
As for GCGATTAA, the “PBM E-score” value turned out to be 0.19.
For AGTAGCTG, the “PBM E-score” value is 0.0396.
Next, AACTATAT: 0.335.
Under GAGGCGTA stands 0.0335.
In the case of CGTGCTAG, the “PBM E-score” value is -0.127.
On to ACCCCACA, for which the “PBM E-score” value was -0.236.
Next, AAGGGTGC: -0.214; TAGTCTCA: 0.0372; CATTTCCG: 0.12.
Under CCCGCCAG stands -0.117.
Next, CTACGACA: 0.0516; ACCCAGAG: -0.0801; CGTTAGGC: -0.135.
CAAAAAGA: the “PBM E-score” value is 0.182.
Under AACCTACT stands 0.111.
Next, CTCGGAGC: 0.0468; AGCTCCAA: 0.165.
Take GGCCTCGA: the “PBM E-score” value was -0.296.
As to CCTGGCAA, the “PBM E-score” value is -0.178.
Regarding GTCACTAA, the “PBM E-score” value is 0.0794.
Under ATTACCGC stands 0.0454.
Next, TCAAGGGA: -0.0131; GCTTCCCC: -0.414.
Take ATCAACCC: the “PBM E-score” value amounted to 0.144.
Regarding AGGCGCGA, the “PBM E-score” value was -0.143.
As to GGAGATCC, the “PBM E-score” value is -0.0693.
Under TTGCAAAA stands 0.192; under AATGTCTA, 0.194.
Under CACCGACC stands -0.0888; under ACTGCGAT, -0.045; under AGACCGCA, -0.0665.
Turning to AATGTTAA, the “PBM E-score” value worked out at 0.106.
Under CAAGCAAG stands -0.0591; under CATTTGGA, 0.0587.
Consider AGAGTTCA, for which the “PBM E-score” value was found to be 0.0551.
As for GACCCGTC, the “PBM E-score” value is -0.337.
CGGGGGGA: the “PBM E-score” value is -0.321.
Consider CTAAGTTC, for which the “PBM E-score” value was -0.0342.
Under AACATATA stands 0.298.
Under AGGGCTGG stands -0.0666; under GGCAAGTA, 0.0178; under AATAAAAC, 0.283.

The values are drawn from the supplement of paper PMC3334620.
